Measured values taken from article PMC10192561, “Studies on the inhibitory effect of isavuconazole on flumatinib metabolism in vitro and in vivo” (Frontiers in Pharmacology, 2023).

Substrate: Cc1ncc(NC(=O)c2ccc(CN3CCN(C)CC3)c(C(F)(F)F)c2)cc1Nc1nccc(-c2cccnc2)n1
Assay: cells, lysate or membranes named
Details: other: flumatinib as substrate, rCYP3A4; 37.0 °C

B1: recombinant human CYP3A4 (rCYP3A4) (Homo sapiens) (protein)
chain: MALIPDLAMETWLLLAVSLVLLYLYGTHSHGLFKKLGIPGPTPLPFLGNILSYHKGFCMFDMECHKKYGKVWGFYDGQQPVLAITDPDMIKTVLVKECYSVFTNRRPFGPVGFMKSAISIAEDEEWKRLRSLLSPTFTSGKLKEMVPIIAQYGDVLVRNLRREAETGKPVTLKDVFGAYSMDVITSTSFGVNIDSLNNPQDPFVENTKKLLRFDFLDPFFLSITVFPFLIPILEVLNICVFPREVTNFLRKSVKRMKESRLEDTQKHRVDFLQLMIDSQNSKETESHKALSDLELVAQSIIFIFAGYETTSSVLSFIMYELATHPDVQQKLQEEIDAVLPNKAPPTYDTVLQMEYLDMVVNETLRLFPIAMRLERVCKKDVEINGMFIPKGVVVMIPSYALHRDPKYWTEPEKFLPERFSKKNKDNIDPYIYTPFGSGPRNCIGMRFALMNMKLALIRVLQNFSFKPCKETQIPLKLSLGGLLQPEKPVVLKVESRDGTVSGA
- Km: 3.06 µM
